For assay [1], the target named is T1, Orc3p, endogenous, in yeast cell extract (S. cerevisiae (endogenous in yeast cells)) (UniProt P54790).
T1 sequence: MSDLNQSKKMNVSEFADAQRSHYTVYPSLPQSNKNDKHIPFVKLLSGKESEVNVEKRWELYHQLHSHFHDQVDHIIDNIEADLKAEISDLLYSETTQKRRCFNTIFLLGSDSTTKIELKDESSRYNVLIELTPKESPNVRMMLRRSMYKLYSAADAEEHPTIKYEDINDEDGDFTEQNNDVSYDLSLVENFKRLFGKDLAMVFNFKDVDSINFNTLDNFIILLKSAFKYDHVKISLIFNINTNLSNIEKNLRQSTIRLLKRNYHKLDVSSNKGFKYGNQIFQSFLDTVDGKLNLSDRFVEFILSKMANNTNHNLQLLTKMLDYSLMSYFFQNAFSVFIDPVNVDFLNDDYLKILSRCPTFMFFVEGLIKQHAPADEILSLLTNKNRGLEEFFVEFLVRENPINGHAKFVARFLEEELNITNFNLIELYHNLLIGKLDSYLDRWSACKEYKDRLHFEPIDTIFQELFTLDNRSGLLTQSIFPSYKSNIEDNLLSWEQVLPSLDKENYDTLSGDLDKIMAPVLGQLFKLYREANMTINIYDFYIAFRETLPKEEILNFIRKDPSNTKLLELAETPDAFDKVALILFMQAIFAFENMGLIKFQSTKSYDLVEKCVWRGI
In words: co-sedimentation; 20–60% sucrose gradient of total extracts from cross-linked NOC3-HA cells grown at 25°C (asynchronous, G1-phase, M-phase); fractions blotted with anti-HA and anti-Orc3.

The target of assay [2] is Noc3p, two differently tagged copies (Noc3-FLAG and Myc-Noc3) (S. cerevisiae) (UniProt Q07896). In words: condition: only cells synchronized in M-phase (nocodazole); co-IP; cells synchronized in M-phase by nocodazole; anti-FLAG IP.
Assay [3] has the same target. In words: co-IP; cycling (asynchronous) yeast cells; DNase I–digested extracts; IP with anti-FLAG, anti-Myc or the indicated antibodies, control mouse IgG.
Assay [4] has the same target. In words: condition: only cells synchronized in S-phase (hydroxyurea); co-IP; cells synchronized in S-phase by hydroxyurea; anti-FLAG IP.
Assay [5] has the same target. In words: co-IP; W303-1A cells expressing Noc3-FLAG and Myc-Noc3, synchronized in M-phase and released; samples at 20–60 min after release.
Assay [6] has the same target. Put plainly: co-IP; YL1923 (MET-CDC6) cells released from M-phase into α-factor, ± methionine (Cdc6p depletion); anti-FLAG IP, control IgG.
For assay [7] the target is unchanged. Put plainly: co-IP; cells synchronized in G1-phase by α-factor; anti-FLAG IP.
Assay [8] has the same target. Put plainly: co-IP; G1-phase ORC1-FRB cells grown ± rapamycin (Orc1-FRB nuclear depletion), expressing Myc-Noc3 and Noc3-FLAG; anti-FLAG IP, control mouse IgG.
Assay [9] has the same target. In words: condition: only 60–80 min after release, cells in S-phase; co-IP; same time course as a8; samples at 60–80 min, cells in S-phase by the text.

These are yes or no findings as the source states them, for the method shown. Binding seen in cells or lysates may run through a third protein. Some binding calls cover weakened binding; strength is not graded here. Tags and fused reporters may be left off the sequences shown.

The record followed here is paper PMC9813392.

B1: Noc3-HA (endogenous Noc3p tagged with HA, NOC3-HA cells) (protein, UniProt Q07896 1-663)
chain: MAKRNRSQFRIQERTAKKRKHEDSLLEGNVFQNAPEDMDENTIYSAKGSSWDEEEQDYEMVPRKNRSDTSNLVEGLPIKVNGKVERKLHKAQEKPKDDDEEDEDSNDSSEDDEGPNEEQEAEAKEDEPDTEEKILQLKEDIADLVTKVMEEPEENTAALGRLCKMVESKNPNTCKFSMLALVPVFKSIIPGYRIRPLTETEKKEKVSKEVSKLRNFEQALVYNYKNYVGRLQSLSKTPSNAAPIQVSLGILATQAAKELISTASHFNFRTDIFTLLLRRICKPRISTDPTSIQIIQTFETLLNEDEEGSISFEILRIFNKILKTRNFNIEESVLNMLLSLDVLHDYDPNTKLKGNVSAPKLKKKDRVHLSKKQRKARKEMQQIEEEMRNAEQAVSAEERERNQSEILKIVFTIYLNILKNNAKTLIGSVLEGLTKFGNMANFDLLGDFLEVMKELISDTEFDNLSSAEVRKALLCIVSAFSLISNTQYMKVNVDLSKFVDGLYALLPYICLDADIELSYRSLRLADPLNNEIIKPSVNVSTKAELLLKALDHVFFRSKSGTKERATAFTKRLYMCISHTPEKTSIAILKFIDKLMNRYPEISGLYSSEDRIGNGHFIMEADNPSRSNPEAATLWDNALLEKHYCPVVTKGLRSLSSRSKECSK
Consider B1, for which, in assay [1], the binding result is given as “binds”.

B2: Noc3p, two differently tagged copies (Noc3-FLAG and Myc-Noc3) (protein, UniProt Q07896 1-663)
chain: MAKRNRSQFRIQERTAKKRKHEDSLLEGNVFQNAPEDMDENTIYSAKGSSWDEEEQDYEMVPRKNRSDTSNLVEGLPIKVNGKVERKLHKAQEKPKDDDEEDEDSNDSSEDDEGPNEEQEAEAKEDEPDTEEKILQLKEDIADLVTKVMEEPEENTAALGRLCKMVESKNPNTCKFSMLALVPVFKSIIPGYRIRPLTETEKKEKVSKEVSKLRNFEQALVYNYKNYVGRLQSLSKTPSNAAPIQVSLGILATQAAKELISTASHFNFRTDIFTLLLRRICKPRISTDPTSIQIIQTFETLLNEDEEGSISFEILRIFNKILKTRNFNIEESVLNMLLSLDVLHDYDPNTKLKGNVSAPKLKKKDRVHLSKKQRKARKEMQQIEEEMRNAEQAVSAEERERNQSEILKIVFTIYLNILKNNAKTLIGSVLEGLTKFGNMANFDLLGDFLEVMKELISDTEFDNLSSAEVRKALLCIVSAFSLISNTQYMKVNVDLSKFVDGLYALLPYICLDADIELSYRSLRLADPLNNEIIKPSVNVSTKAELLLKALDHVFFRSKSGTKERATAFTKRLYMCISHTPEKTSIAILKFIDKLMNRYPEISGLYSSEDRIGNGHFIMEADNPSRSNPEAATLWDNALLEKHYCPVVTKGLRSLSSRSKECSK
Take B2: the binding entry in [2] is “no binding”; in assay [3], “binds”; in assay [4], “no binding”; in assay [5], “binds”; in [6], “binds”; in [7], “binds”. The binding result was “binds” in assay [8] and “no binding” in assay [9].
